Where “and” joins values, the source holds several entries; their conditions need not be identical. Equal entries are not always repeated. The campaign covered roughly 360,000 compounds. About 2,600 (0.72%) were called active. The inconclusive results got no clear call from the source; some entries with a clear call stand among them for comparison. Calls come from the whole dose curve; as a rule, active = well fitted inhibition curve with a large enough effect; inconclusive = small, poorly fitted or top-dose-only effect; inactive = no such curve, though single readings can be large or run the other way. A potency beside an inconclusive call is a rough fit, not a confirmed value.
test: Primary qHTS for Inhibitors of ATXN expression; settings: HEK-293 ATXN2-luciferase reporter, luminescence, 24 h; series mostly up to 57 µM; note: nearly all actives have a fitted effect of over 55% in size
Method in brief: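 qHTS (up to 57 uM final) was run with 24 h compound exposure of reporter cells at 37 °C. Each well was multiplexed: SteadyGlo luminescence measured ATXN2-luciferase expression after a fluorogenic Gly-Phe-AFC viability readout (25 uM final).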
Potency is the fitted concentration of half-maximal effect; tags give direction and shape of the fitted curve.

Which Potency does the source give for c1ccc(CCCNCCCn2cnc3c(OCc4ccccc4)ncnc32)cc1 here?
Its Potency is inconclusive: 31.6 µM [inhibitor, single point].

For COC(=O)c1ccccc1-c1ccc(/C=N/Nc2nc(N3CCCC3)nc(N3CCCC3)n2)o1, which Potency is on record?
The Potency was inconclusive: 29.9 µM [inhibitor, single point].

Which Potency does the source give for O=C(O)CCC=CCC[C@@H]1[C@H](N2CCCCC2)[C@@H](O)C[C@@H]1OCc1ccc(-c2ccccc2)cc1 here?
The Potency was inconclusive: 0.0172 µM [inhibitor, full curve].

With O=C(Nc1ccc(S(=O)(=O)N2CCOCC2)cc1)c1ccc([N+](=O)[O-])o1 as the compound, how does the Potency read?
Its Potency is inconclusive: 39.8 µM [inhibitor, single point].

For Cc1cccc2sc(N(CCCN(C)C)C(=O)CCS(=O)(=O)c3ccccc3)nc12, which Potency is on record?
Its Potency is inconclusive: 35.5 µM [inhibitor, single point].

For CC(=O)N1CCN(c2ccc(S(=O)(=O)N3CCOCC3)cc2[N+](=O)[O-])CC1, which Potency is on record?
The Potency was “inactive”.

With COc1ccc2cc(-c3nnc(Nc4ccccc4)s3)c(=O)oc2c1 as the compound, how does the Potency read?
The Potency was “inactive”.

With Cc1oc2ncn(C)c(=O)c2c1C(=O)NCCCN1CCCCC1C (stereo not drawn) as the compound, how does the Potency read?
Its Potency is “inactive”.

For CC(C)c1ccc(NC2CCCN(C(=O)c3cccs3)C2)cc1 (stereo not drawn), which Potency is on record?
Its Potency is “inactive”.

With CN(Cc1ccccc1)C(=O)CC(=O)N(C)Cc1ccccc1 as the compound, how does the Potency read?
The Potency was “inactive”.

Which Potency does the source give for Cc1nc2c(OCc3ccc(Cl)cc3)cccn2c1N(C)Cc1cccs1 here?
The Potency was inconclusive: 39.8 µM [inhibitor, single point].

With COc1ccc(-c2c[n+]3c4n2CCCCC4=C(c2ccccc2)C3)cc1 as the compound, how does the Potency read?
The Potency was inconclusive: 28.2 µM [inhibitor, single point].

For O=C(O)c1cccc(COc2ccc3c(c2)CCC3)c1, which Potency is on record?
Its Potency is inconclusive: 15.8 µM [inhibitor, single point].

Which Potency does the source give for CCOc1cc(/C=N/O)cc(Br)c1OCc1ccc(Cl)cc1 here?
The Potency was inconclusive: 25.1 µM [inhibitor, partial curve].

With CC1=C/C(=N\OS(=O)(=O)c2ccccc2)C(C(C)C)=CC1=O as the compound, how does the Potency read?
The Potency was inconclusive: 35.5 µM [inhibitor, single point].

Which Potency does the source give for CC(=O)c1cccc(NC(=O)C(CC(C)C)NS(=O)(=O)c2ccc3c(c2)CCN3C(C)=O)c1 (stereo not drawn) here?
The Potency was “inactive”.

For Cc1ccc(-c2nnc(Nc3cccc(O)c3)c3ccccc23)cc1S(=O)(=O)NCC1CCCO1 (stereo not drawn), which Potency is on record?
The Potency was inconclusive: 35.5 µM [inhibitor, single point].

For NS(=O)(=O)c1ccc(CCNc2ncnc3c2cnn3-c2cccc(Cl)c2)cc1, which Potency is on record?
The Potency was inconclusive: 28.2 µM [inhibitor, single point].

Which Potency does the source give for CC(C)CN(C(=O)COC(=O)c1ccc([N+](=O)[O-])s1)c1c(N)n(Cc2ccccc2)c(=O)[nH]c1=O here?
Its Potency is “inactive”.

With CCOC(=O)c1cnc(-c2ccccc2)nc1Oc1ccc(C)cc1 as the compound, how does the Potency read?
The Potency was inconclusive: 28.2 µM [inhibitor, partial curve, poor fit].

Which Potency does the source give for Cc1oc2ccc(O)c(CN3CCCC3)c2c1C(=O)Nc1ccc(C(C)C)cc1 here?
The Potency was inconclusive: 31.6 µM [inhibitor, single point].

With CCCn1c(CNc2ccc(Br)cc2)nc2ccccc21 as the compound, how does the Potency read?
Its Potency is “inactive”.

With Cc1ccc(Cl)cc1N1CCN(C(=O)c2c(C)oc3ncnc(N4CCCCC4)c23)CC1 as the compound, how does the Potency read?
The Potency was active: 28.2 µM.

For CCCCOc1cccc(C(=O)Nc2cc(NC(=O)c3ccco3)ccc2OC)c1, which Potency is on record?
Its Potency is inconclusive: 39.8 µM [inhibitor, single point].

For COc1ccc(-n2nc(CCC(=O)N(C)O)cc2-c2ccc(Cl)cc2)cc1, which Potency is on record?
The Potency was inconclusive: 15.8 µM [inhibitor, partial curve].

For CCC(CC)C(=O)Nc1cc(C)c2c(=O)oc3ccccc3c2n1, which Potency is on record?
Its Potency is inconclusive: 31.6 µM [inhibitor, single point].

With CC1Cc2ccccc2N1C(=O)CSc1nnc(CSc2ncccn2)n1C (stereo not drawn) as the compound, how does the Potency read?
The Potency was inconclusive: 39.8 µM [inhibitor, single point].

For Cc1cccc(-c2nnn3c2nc(NCc2ccc4c(c2)OCO4)c2ccccc23)c1, which Potency is on record?
The Potency was “inactive”.

For CCCOc1ccc(/C=N/NC(=S)Nc2ccccc2[N+](=O)[O-])c(O)c1, which Potency is on record?
Its Potency is inconclusive: 3.16 µM [inhibitor, full curve, poor fit].

For CCCCn1c(N)c(N(CC(C)C)C(=O)C2CCCN(C(=O)c3ccc(Cl)cc3)C2)c(=O)[nH]c1=O (stereo not drawn), which Potency is on record?
Its Potency is “inactive”.

With O=C(N/N=C/c1sc(N2CCOCC2)nc1-c1ccccc1)c1cccc(S(=O)(=O)N2CCCC2)c1 as the compound, how does the Potency read?
Its Potency is inconclusive: 2.99 µM [inhibitor, full curve].

For CCC1SC2=NC(C)=C(C(=O)OCC(C)C)C(/C=C/c3ccccc3OC)N2C1=O (stereo not drawn), which Potency is on record?
The Potency was “inactive”.

For CCOc1cc(N2CCOCC2)c(OCC)cc1NC(=O)c1cnccn1, which Potency is on record?
Its Potency is “inactive”.

Which Potency does the source give for Cc1cc(C)nc(NC(=O)c2c(F)c(F)c(F)c(C(=O)Nc3cc(C)cc(C)n3)c2F)c1 here?
Its Potency is “inactive”.

For CCOc1ccc(Nc2c(S(=O)(=O)c3ccc(Cl)cc3)cnc3ccc(OCC)cc23)cc1, which Potency is on record?
Its Potency is “inactive”.

Which Potency does the source give for Cc1cc(N2CCN(C)CC2)nc2ccc(NC(=O)Nc3cccc(Cl)c3)cc12 here?
Its Potency is inconclusive: 39.8 µM [inhibitor, single point].

For CN(CC(=O)Nc1ccccc1Br)C(=O)CN1CCN(Cc2cccc(Cl)c2)CC1, which Potency is on record?
The Potency was inconclusive: 31.6 µM [inhibitor, single point].

For CCn1c(CC(C)C)n[nH]c1=S, which Potency is on record?
Its Potency is “inactive”.

With CC(C)C1C(=O)Nc2ccc(S(=O)(=O)NCCc3ccc(Cl)cc3)cc21 (stereo not drawn) as the compound, how does the Potency read?
Its Potency is inconclusive: 39.8 µM [inhibitor, single point].

Which Potency does the source give for Cc1ccc(C(NC(=O)C(C)C)c2cc([N+](=O)[O-])c3cccnc3c2O)cc1 (stereo not drawn) here?
The Potency was inconclusive: 22.4 µM [inhibitor, partial curve].

Which Potency does the source give for O=C(NCc1cccc(C(F)(F)F)c1)N1CCN(S(=O)(=O)c2ccccc2F)CC1 here?
Its Potency is inconclusive: 9.47 µM [inhibitor, single point].

With CCCC(C(=O)OCCN(CC)CC)(c1ccccc1)c1ccccc1 as the compound, how does the Potency read?
The Potency was active: 31.6 µM and inconclusive: 25.1 µM [inhibitor, single point].

Which Potency does the source give for CCOC(=O)C1=C(CNC2CCCCC2)NC(=O)NC1c1cc(C)ccc1C (stereo not drawn) here?
The Potency was inconclusive: 12.6 µM [inhibitor, partial curve, poor fit].

Source: PubChem BioAssay AID1745845 (National Center for Advancing Translational Sciences (NCATS), 2022)
